Hit rate of the full screen: of about 410,000 compounds, about 850 (0.21%) were called active. This list was built around the results that the source calls inconclusive (neither active nor inactive); the mix of calls is not that of the screen. Calls come from the whole dose curve; as a rule, active = well fitted inhibition curve with a large enough effect; inconclusive = small, poorly fitted or top-dose-only effect, or another doubt; inactive = no such curve, though single readings can be large or run the other way. No potency is given beside an inconclusive call; the fits are too rough.
Each compound was assayed against Glutaminase kidney isoform, mitochondrial (Homo sapiens) (UniProt O94925) (assay: qHTS for Inhibitors of Glutaminase (GLS)). Settings: GLS enzymatic activity, qHTS titration; series mostly up to 45.5 µM.
Sequence of UniProt O94925 (O94925 whole entry, looked up, canonical isoform): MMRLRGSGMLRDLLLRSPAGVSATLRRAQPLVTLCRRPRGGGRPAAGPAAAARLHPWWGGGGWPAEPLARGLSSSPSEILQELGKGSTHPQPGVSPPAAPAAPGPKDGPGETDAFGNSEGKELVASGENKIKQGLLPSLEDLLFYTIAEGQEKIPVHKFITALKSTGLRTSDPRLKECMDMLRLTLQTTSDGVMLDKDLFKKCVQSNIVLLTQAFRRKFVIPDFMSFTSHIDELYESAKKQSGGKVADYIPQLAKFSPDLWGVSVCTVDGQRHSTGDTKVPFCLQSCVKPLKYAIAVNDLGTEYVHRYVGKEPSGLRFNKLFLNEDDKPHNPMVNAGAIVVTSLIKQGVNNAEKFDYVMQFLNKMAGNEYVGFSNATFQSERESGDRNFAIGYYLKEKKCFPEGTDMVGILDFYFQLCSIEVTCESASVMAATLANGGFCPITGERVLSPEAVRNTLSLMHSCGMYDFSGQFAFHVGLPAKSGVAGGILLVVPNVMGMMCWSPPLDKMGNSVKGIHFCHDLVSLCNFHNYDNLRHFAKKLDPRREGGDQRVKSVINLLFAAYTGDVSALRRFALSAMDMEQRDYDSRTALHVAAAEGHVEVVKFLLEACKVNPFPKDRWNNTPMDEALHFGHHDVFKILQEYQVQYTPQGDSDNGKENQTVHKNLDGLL
Method in brief: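 hKGA in 45 mM KH2PO4 (pH 8.2), 0.02% Tween-20 with compound, then 1mM L-Glutamine (stock as added) plus glutamate oxidase/HRP/Amplex red coupling mix. Fluorescence read initially and after 30 min at RT; signal change reflects glutamate formation.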
Potency is the fitted concentration of half-maximal effect; tags give direction and shape of the fitted curve.

SMILES | Potency
Cc1nc2c(O)c3c(c(O)c2nc1C)C1C=CC3CC1 | inconclusive [inhibitor, single point]
CN(CC(=O)Nc1ccc(OC(F)(F)F)cc1)C1CCCCC1 | inconclusive [inhibitor, single point]
Cc1ccc(NC(=O)C(Cc2ccccc2)N2Cc3ccccc3C2=O)cc1Cl (stereo unspecified) | inactive
COc1cc(NC(C)CCc2ccccc2)cc(OC)c1OC (stereo unspecified) | inconclusive [inhibitor, partial curve, poor fit]
CCc1ccc(N2CSC3=C(C#N)C(c4cccs4)CC(=O)N3C2)cc1 (stereo unspecified) | inconclusive [inhibitor, partial curve, poor fit]
CC(C)C(C(=O)Nc1ccccc1F)N1C(=O)c2ccccc2C1=O (stereo unspecified) | inconclusive [inhibitor, single point]
Cc1ccc(S(=O)(=O)n2c3ccc(Cl)cc3c3nc(C)sc32)cc1 | inactive
COc1ccc2c(c1)CC/C(=C\C=C\c1ccccc1)C2=O | inactive
CCOc1ccc(CNC(=O)Cn2ccc3cc(S(=O)(=O)N4CCCCC4)ccc32)cc1 | inactive
CC1CCCN(S(=O)(=O)c2ccc(NC(=O)C3CC(=O)N(C(C)(C)C)C3)cc2)C1 (stereo unspecified) | inactive
Cc1nn(-c2ccccc2)c(C)c1/C=N/n1c(-c2ccncc2)n[nH]c1=S | inconclusive [inhibitor, partial curve, poor fit]
COc1ccc(-n2cc(C(=O)OCc3ccc(Cl)cc3)c3ccccc3c2=O)cc1 | inconclusive [inhibitor, partial curve, poor fit]
O=C(Cn1c(SCC(=O)Nc2ccc(F)cc2)nc2ccccc21)NCc1ccccc1Cl | inactive
O=C(Cn1c(=O)cnc2ccccc21)N1CCN(S(=O)(=O)c2ccccc2Br)CC1 | inactive
COc1ccc(/C=C/C(=O)c2cc3c(cc2N)OCO3)cc1 | inconclusive [inhibitor, single point]
COc1ccc2c(c1)cc(C(=O)N/N=C/c1c(O)c(C(=O)O)cc3ccccc13)n2C | inconclusive [inhibitor, single point]
Cc1cc(-c2cc(C)c(N)cc2C)c(C)cc1N | inconclusive [inhibitor, single point]
COc1ccc(N2CCN(C(=O)CN(c3ccc(OC)cc3)S(=O)(=O)c3ccccc3)CC2)cc1 | inactive
Cc1sc(NC(=O)CCCC(=O)O)c(C#N)c1C | inactive
CSc1nn(Cc2cccc(Cl)c2)c(N(C(C)=O)C(C)=O)c1S(=O)(=O)c1ccccc1 | inactive
COCCOC(=O)/C(=C\c1cc(C(C)(C)C)c(O)c(C(C)(C)C)c1)C(C)=O | inactive
COc1ccc(C)cc1NC(=O)Nc1ccccc1OCc1cc(=O)n2ccccc2n1 | inactive

SMILES | Potency
Cc1cc(C)c(NC(=O)C(=O)NCC(c2cccnc2)N2CCN(Cc3ccccc3)CC2)c(C)c1 (stereo unspecified) | inconclusive [inhibitor, single point]
COc1cccc(NC(=O)CSC2=Nc3ccccc3C3=NC(CC(=O)NCc4ccc5c(c4)OCO5)C(=O)N23)c1 (stereo unspecified) | inconclusive [inhibitor, full curve, poor fit]
O=C(NCc1cccs1)c1cnc2sccn2c1=O | inconclusive [inhibitor, single point]
COc1ccc(C(=O)COC(=O)[C@H](C)Nc2ccc(C(F)(F)F)cc2[N+](=O)[O-])c(OC)c1 | inconclusive [inhibitor, single point]
O=C(CN1C(=O)c2ccccc2C1=O)NCc1ccc(F)cc1 | inconclusive [inhibitor, single point]
CC(C)C(NC(=O)C1CC(=O)N(Cc2ccccc2)C1)c1nc2ccccc2[nH]1 (stereo unspecified) | inconclusive [inhibitor, partial curve, poor fit]
COCCCN1C(=O)C(CC(=O)NCc2ccco2)CC(C(=O)N(C(C)C)C(C)C)=C1C (stereo unspecified) | inactive
CC1=C(C(=O)OCC(C)C)[C@]23C(=O)c4ccccc4[C@@]2(O1)OC(N)=C3C#N | inconclusive [inhibitor, single point]
Oc1ccc(/C=N/N=C/c2ccc(O)c(O)c2)cc1O | inconclusive [inhibitor, single point]
CC[N+]1(C)CCC(O)(c2ccc(OC)cc2)C(C(=O)c2ccc(OC)cc2)C1 (stereo unspecified) | inactive
Cn1c(O)c(/C=C2\C=NN=C2c2ccccc2)sc1=S | inactive
c1ccc(Cc2nn3c(C4COc5ccccc5O4)nnc3s2)cc1 (stereo unspecified) | inconclusive [inhibitor, single point]
N#CC1=C(N)N2C(=C(C#N)C13CCCC3)Nc1ccccc12 | inconclusive [inhibitor, single point]
CCC(NC(=O)NNC(=O)c1ccncc1)(C(F)(F)F)C(F)(F)F | inactive
CCc1c(C)c(C#N)c2[nH]c3ccccc3n2c1=S | inconclusive [inhibitor, partial curve, poor fit]
CCn1cnc2cc(NCc3ccc(Cl)cc3)ccc21 | inconclusive [inhibitor, full curve, poor fit]
CCN(C(=O)COC(=O)/C=C/c1ccco1)C1CCCCC1 | inconclusive [inhibitor, partial curve, poor fit]
N#C/C(=C\c1ccc(N2CCOCC2)o1)C(=O)NC1CCCCC1 | inactive
COCCN(Cc1cc2cc3c(cc2nc1Cl)OCO3)C(=O)Nc1ccccc1OC | inconclusive [inhibitor, single point]
Cc1occc1-c1nnc(SCc2nnc(-c3ccc(Cl)cc3)o2)n1C | inconclusive [inhibitor, single point]
Cn1nc(C(=O)NNc2c(F)c(F)cc(F)c2F)c2ccccc2c1=O | inconclusive [inhibitor, single point]
O=C1N2CCSC2=NC1(Nc1nccs1)C(F)(F)F (stereo unspecified) | inconclusive [inhibitor, single point]

SMILES | Potency
CC(=O)c1c(N(C)C)ccnc1C(F)(F)F | inconclusive [inhibitor, single point]
C#CCOCCOCCOCCNc1nc(N2CCN(C(=O)CCCCCCCCCCNC(=O)[C@H](CCCCN)n3cc(C[C@@H](C)CC)nn3)CC2)nc(N2CCN(C(=O)CCCCCCCCCCNC(=O)[C@@H]([C@H](C)O)n3cc(C)nn3)CC2)n1 | inconclusive [inhibitor, single point]
COc1cccc(NC(=O)c2sc3nc(C)c(C(=O)Nc4ccc(C)cc4C)c(-c4ccccc4Cl)c3c2N)c1 | inactive
Cc1ccc(NC(=S)Nc2cc(C(=O)O)ccc2N2CC3CC(C2)c2cccc(=O)n2C3)cc1C (stereo unspecified) | inactive
CCN(CC(=O)Nc1ccc(NC(C)=O)cc1)C(=O)c1cccc(S(=O)(=O)N2CCCC2)c1 | inconclusive [inhibitor, partial curve, poor fit]
CSc1nnc([C@@H](NC(=O)OC(C)(C)C)C(C)C)o1 | inconclusive [inhibitor, single point]
Cn1c(-c2ccccc2)n[nH]c1=S | inconclusive [inhibitor, partial curve, poor fit]
Cc1ccc([N+](=O)[O-])cc1S(=O)(=O)N1CCNCC1 | inconclusive [inhibitor, partial curve, poor fit]
N=c1c2c(-c3ccccc3)c(-c3ccccc3)n(Cc3ccco3)c2ncn1CCCO | inconclusive [inhibitor, single point]
O=C(Nc1ccc(Cl)c(C(F)(F)F)c1)NC1CC2CCCC(C1)N2Cc1ccccc1 (stereo unspecified) | inactive
C/C(=N\Nc1ccccn1)c1ccc(OC(F)F)cc1 | inconclusive [inhibitor, single point]
COc1ccc(C(=O)OCC2CC(c3ccccc3)=NO2)cc1OC (stereo unspecified) | inconclusive [inhibitor, single point]
CN(C(=O)Nc1ccc(Cl)c(Cl)c1)c1ccccc1C(=O)O | inactive
COc1ccc(-c2nc3c(c(SCC(=O)Nc4ccc(C(=O)O)cc4)n2)Cc2ccccc2O3)cc1 | inconclusive [inhibitor, full curve, poor fit]
NS(=O)(=O)c1ccc(CCNC(=O)CCCCCn2c(=O)[nH]c3ccccc3c2=O)cc1 | inconclusive [inhibitor, single point]
COC(=O)C1=C(C(=O)OC)C(c2ccccc2O)c2sc(=O)[nH]c2S1 (stereo unspecified) | inconclusive [inhibitor, partial curve]
O=C(Nc1ccc(Cl)cc1)C1CC=CCC1C(=O)OCC(F)(F)C(F)F (stereo unspecified) | inconclusive [inhibitor, single point]
CCN(CC)S(=O)(=O)c1ccc2c(c1)nc(SCc1nc3ccsc3c(=O)[nH]1)n2CC | inconclusive [inhibitor, partial curve]
CCOC(=O)[C@]12CCCC=C1N(Cc1ccco1)C(=O)[C@H](CC(=O)NCCC(C)C)C2 | inactive
CCC(c1ccc(O)c(O)c1)C(CC)c1ccc(O)c(O)c1 (stereo unspecified) | inconclusive [inhibitor, single point]
COc1ccc(C(=O)c2cn(CC(=O)Nc3ccc4c(c3)OCO4)c3ccc(OC)cc3c2=O)cc1 | inconclusive [inhibitor, partial curve]
CC(C)c1ccc(C2C3=C(COC3=O)Nc3cc4c(cc32)OCO4)cc1 (stereo unspecified) | inconclusive [inhibitor, partial curve, poor fit]
